Experimental data reported in article PMC7819943, “Rice protein-binding microarrays: a tool to detect cis-acting elements near promoter regions in rice”.
The other results are listed elsewhere or left out.

These sequences were tested against T1, OsWOX13 (Oryza sativa, UniProt Q5QMM3 1-267) (assay: protein-binding microarray (RPBM); PBS, 2% BSA, 51.3 ng/ul salmon testes DNA, 50 uM zinc acetate, 200 nM TF, 25 C, 1 h; high values mean tight binding). Conditions: protein: recombinant; tags: N-terminal polyhistidine and DsRed monomer fusion (pET32a); label: CyDye5-dUTP incorporated in the synthesized complementary strand; 3' TTTTT single-stranded linker to array surface; dsDNA, one strand shown.
T1 sequence: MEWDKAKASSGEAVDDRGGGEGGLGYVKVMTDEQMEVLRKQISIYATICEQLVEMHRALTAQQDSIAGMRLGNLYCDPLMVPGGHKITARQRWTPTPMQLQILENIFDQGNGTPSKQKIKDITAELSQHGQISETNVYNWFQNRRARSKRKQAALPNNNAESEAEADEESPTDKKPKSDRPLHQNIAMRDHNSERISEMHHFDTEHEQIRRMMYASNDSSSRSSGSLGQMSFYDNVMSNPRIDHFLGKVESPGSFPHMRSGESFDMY
Outline: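 The binding signal is fluorescence intensity per feature, in arbitrary units, read on an Axon 4000B scanner. Polyhistidine- and DsRed-tagged transcription factors (N-terminal fusions) from E. coli BL21-CodonPlus were purified on Ni–NTA and applied at 200 nM for 1 h at 25 °C to a double-stranded, BSA-blocked custom Agilent array in buffer with 50 µM zinc acetate.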

Row | Sequence | binding signal
1 | TCACATTGACTGATGATCCAAATGGCAAAGAACCACAATGCGGAGTCACCTAGTGCAG | 24700 fluorescence intensity (a.u.)
2 | TCCTATAGATTGAGAGGAGTAAACTTAATCAGGTATTAACCGGAGTCACCTAGTGCAG | 23600 fluorescence intensity (a.u.)
3 | TTCAATTGATGTTCTTGCTTGCAAGTTGCAACGAGATTTGCGGAGTCACCTAGTGCAG | 7920 fluorescence intensity (a.u.)
4 | CTTCTAAACTTGATGTACGCAATCATCTGATGGTGTGGGTCGGAGTCACCTAGTGCAG | 3810 fluorescence intensity (a.u.)
5 | GCCCAATTCCACTGCAAATTTAAATGGGCCAGGATCCGGACGGAGTCACCTAGTGCAG | 3320 fluorescence intensity (a.u.)
6 | CGGATCTTCAATCAGCAGTGTAGATCTTGGGTGGATGTGGCGGAGTCACCTAGTGCAG | 8270 fluorescence intensity (a.u.)
7 | TAATCCAAATGATTGGTCAAACAAGAGACATCTACCAAAACGGAGTCACCTAGTGCAG | 7190 fluorescence intensity (a.u.)
8 | AGGAAATGAGATTGATGAAAACACTGTTTCTGCAGTTCTGCGGAGTCACCTAGTGCAG | 20800 fluorescence intensity (a.u.)
9 | TGATGACTGGGCTGTCACATCAGTATGTTTGGACCAAGTCCGGAGTCACCTAGTGCAG | 12500 fluorescence intensity (a.u.)
10 | ATCCGATACTAGATTGCTATAATATGGGACGGAGGGAGTACGGAGTCACCTAGTGCAG | 3180 fluorescence intensity (a.u.)
11 | ATAAAATGGGATTTATATGTCTATTATGTATTCTCAGTTTCGGAGTCACCTAGTGCAG | 5700 fluorescence intensity (a.u.)
12 | TTTTAATTGCATTCCCCGTAAAAGATAGTAGTACCAATGTCGGAGTCACCTAGTGCAG | 29000 fluorescence intensity (a.u.)
13 | GTAACACAATTGATTCATGGAAGACAATATTTCCCCTAGCCGGAGTCACCTAGTGCAG | 6760 fluorescence intensity (a.u.)
14 | TGGCACAATAAATTATCGTTGAAAATTTTATTTTGGTTTGCGGAGTCACCTAGTGCAG | 4420 fluorescence intensity (a.u.)
15 | AAGATCGATAAATTAATTGAGCGGCGGCGGCTGGGACTATCGGAGTCACCTAGTGCAG | 28700 fluorescence intensity (a.u.)
16 | TTGAAAATTTAAAGCAAAATTAAGCATACTTTCTTGCCTTCGGAGTCACCTAGTGCAG | 3510 fluorescence intensity (a.u.)
17 | TCAATTAACTGCAACATTTCATTCATACGTAGTGAAACATCGGAGTCACCTAGTGCAG | 8320 fluorescence intensity (a.u.)
18 | CCCAAGCAAGAGAAATGATTGGTGATGATTCACGAATATGCGGAGTCACCTAGTGCAG | 8090 fluorescence intensity (a.u.)
19 | AATTTTGATAGGGTAGAATTGAAAATGTTTATTTGGATTGCGGAGTCACCTAGTGCAG | 10500 fluorescence intensity (a.u.)
20 | AAAGATTTAATTGTTATGAACACAATGGTGTAATCGGATCCGGAGTCACCTAGTGCAG | 31700 fluorescence intensity (a.u.)
21 | ATGGATTTGATCACCATTTACAAACAGCTACTTGAGGCATCGGAGTCACCTAGTGCAG | 3270 fluorescence intensity (a.u.)

Row | Sequence | binding signal
22 | TCATCAATCATTGTCACTTACTACTTTTGTCTTCGTCTCCCGGAGTCACCTAGTGCAG | 40900 fluorescence intensity (a.u.)
23 | CTTTTGACTGCCACAGTGTGTTAGGTATATGTTTGTTTCACGGAGTCACCTAGTGCAG | 4920 fluorescence intensity (a.u.)
24 | GGATTATCAATCAAGCAAGCAAACAAACACTAAGGAAACCCGGAGTCACCTAGTGCAG | 15000 fluorescence intensity (a.u.)
25 | TCTGATAGGACGGCCCATACCTACCTCCACTTCCGCCGGACGGAGTCACCTAGTGCAG | 8180 fluorescence intensity (a.u.)
26 | TACTTTTGATTGTTTCACGAACCATGGCTTTGAATTCTTTCGGAGTCACCTAGTGCAG | 18500 fluorescence intensity (a.u.)
27 | GCTTAACTTTGCTCCTACGTCAATTATCAGTAGCTCAGGGCGGAGTCACCTAGTGCAG | 4670 fluorescence intensity (a.u.)
28 | GGGCTCAATTACACAGTTTCTTCAACCTCCAGCCATTTAGCGGAGTCACCTAGTGCAG | 4340 fluorescence intensity (a.u.)
29 | ACGTAATTTTATTTTGATGCTAACCGCACAATTACGCGGGCGGAGTCACCTAGTGCAG | 23300 fluorescence intensity (a.u.)
30 | CATGTATCAATAATTTGTAACGAAATTAGTACTCCCTCTGCGGAGTCACCTAGTGCAG | 27300 fluorescence intensity (a.u.)
31 | ATAATTAGTCGTAACTACGAGCACCTGTATCAAGTCATGCCGGAGTCACCTAGTGCAG | 11100 fluorescence intensity (a.u.)
32 | TACCAAGTACGTGATTAGATCGAAGCATAGATCAAAGCCACGGAGTCACCTAGTGCAG | 5120 fluorescence intensity (a.u.)
33 | GGGAAGGCGGCGATTGATTTGATTTGACCAAGATTGGTCGCGGAGTCACCTAGTGCAG | 28700 fluorescence intensity (a.u.)
34 | ACTAGATGGCTGAATGGAATAGATTATTCCCTATGGACTACGGAGTCACCTAGTGCAG | 4800 fluorescence intensity (a.u.)
35 | TCTCAATTTGCAATTAACCCAAAACGATCGAGCGACCAAGCGGAGTCACCTAGTGCAG | 13500 fluorescence intensity (a.u.)
36 | CCTCCTGTTAACTCGTATCACCTCCCTCCCTCACTGAACCCGGAGTCACCTAGTGCAG | 7850 fluorescence intensity (a.u.)
37 | ATCAATCAACTTACTCGTCATTCTTCCTCCATCTTATAATCGGAGTCACCTAGTGCAG | 12700 fluorescence intensity (a.u.)
38 | TTGTTCTAATAAATCACGGCGTGATTTTGAATGAAAATGCCGGAGTCACCTAGTGCAG | 8960 fluorescence intensity (a.u.)
39 | ACAAGATTATGACGAACACAACGCCATCACATGCTAGCAGCGGAGTCACCTAGTGCAG | 5370 fluorescence intensity (a.u.)
40 | CTGTACTAATTTTGATCTAAGAAAATTACGCGATATGGGTCGGAGTCACCTAGTGCAG | 16100 fluorescence intensity (a.u.)
41 | AATGATGGATGTTCCGGCCTAGCTAACCTTTGGATGACCTCGGAGTCACCTAGTGCAG | 11000 fluorescence intensity (a.u.)
42 | GTTTGTAATAATTAAAATTTAATTAATCGTGTATTAATAACGGAGTCACCTAGTGCAG | 14000 fluorescence intensity (a.u.)
